Laboratory results reported in the BET-seq Pho4 binding data (Le et al. 2018).
The other results are listed elsewhere or left out. The energies were worked out here from pooled read counts, against the library average; single values are noisy.

Each sequence was assayed against T1, Pho4 (S. cerevisiae) (UniProt P07270) (assay: relative binding free energy (BET-seq); higher = weaker binding). Settings: reference: library average.
T1 sequence: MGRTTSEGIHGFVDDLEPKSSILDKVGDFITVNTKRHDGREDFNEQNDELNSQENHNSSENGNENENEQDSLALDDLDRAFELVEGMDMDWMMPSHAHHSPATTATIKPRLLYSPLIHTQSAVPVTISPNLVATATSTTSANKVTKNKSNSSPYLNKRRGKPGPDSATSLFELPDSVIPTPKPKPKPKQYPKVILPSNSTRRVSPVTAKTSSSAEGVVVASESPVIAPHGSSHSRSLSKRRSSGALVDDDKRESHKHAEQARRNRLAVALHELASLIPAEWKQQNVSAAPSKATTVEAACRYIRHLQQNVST

Sequence	relative binding free energy [kcal/mol]
GCTGACACGTGTGTGA	0.19
AAGTGCACGTGTAATA	0.27
TACGTCACGTGTTAGA	0.13
CTAGGCACGTGTTGTG	-0.06
GGAAGCACGTGGTTGT	-0.08
GCGTGCACGTGAGTTA	0.18
TTCTGCACGTGTAGTT	0
ACCTTCACGTGTTGTT	0.27
TTGATCACGTGACAAG	0.42
AGGGACACGTGTGGGT	0.07
ATTGGCACGTGGGAAA	-0.12
ATTGTCACGTGAGTTT	0.3
GTCTACACGTGGGCTT	0.09
ATGGTCACGTGTCGTG	0.16
TCCGGCACGTGTATGG	-0.02
TTTTCCACGTGAGGAT	0.22
AGTCTCACGTGGGGGT	0.12
GTGGTCACGTGATGAA	0.37
TGGAACACGTGTGAAG	0.05
TACGACACGTGTGTTG	0.03
TTTGACACGTGGTTTT	-0.05
TTAAACACGTGTAGGT	0.1
AGTCTCACGTGTTGGA	0.17
CGGGTCACGTGTAGCG	0.08
CTATTCACGTGAGGTT	0.46

Sequence	relative binding free energy [kcal/mol]
CGTTGCACGTGTTTTT	0.06
TGGGTCACGTGAGCCG	0.12
GTGGGCACGTGTCTAG	-0.06
TTCGGCACGTGTTCTT	-0.03
GGGTTCACGTGCAATT	0.36
AGGGGCACGTGTGCTG	-0.17
CGGAGCACGTGGGCTG	-0.2
GGGCGCACGTGGGTCA	-0.08
ATAGACACGTGTTGTC	-0.1
ATTATCACGTGGGTCA	0.03
CGTTGCACGTGATGTA	-0.03
TTGGCCACGTGGTTAA	-0.1
GGGTACACGTGGTTGA	0.15
CGTTGCACGTGGAATG	0.1
TAAGTCACGTGAACTG	0.43
ACTTTCACGTGTGATT	0.25
TGGACCACGTGGGCTT	-0.04
TGGCGCACGTGACGTG	-0.06
ATGTCCACGTGGTTAT	0.09
TATGGCACGTGGCGAT	-0.13
GATTCCACGTGTAGTT	0.26
CTGGCCACGTGGGTGG	-0.24
GGTTTCACGTGCTGGG	0.45
AGGGGCACGTGTGTGT	-0.07
AATTTCACGTGGCGTT	0.09

Sequence	relative binding free energy [kcal/mol]
TGGAGCACGTGCAATG	-0.11
GAAGTCACGTGTGGTA	0.09
AGGAGCACGTGGTAAT	-0.03
GACTTCACGTGAGGGA	0.52
CTGGGCACGTGCAGTG	-0.09
GGTGGCACGTGGTACA	-0.22
GACTGCACGTGTGGGA	0.17
AGCGGCACGTGAATTG	0.1
GGGATCACGTGGAAGA	0.32
TAAGACACGTGCGGGG	-0.08
TTTGGCACGTGACGGC	0.11
GGAGACACGTGATTGG	0.26
ATCGGCACGTGCGTTT	-0.19
TAATTCACGTGGTACT	0.15
GAAAACACGTGGTGGT	0.07
TTGTACACGTGAGGCT	0.21
GAGATCACGTGCTTGT	0.15
TATGGCACGTGGGTAA	-0.16
AGTTGCACGTGTAGGC	0.03
TTATGCACGTGCATGT	-0.04
AGGGACACGTGTAGAG	-0.04
GTGTTCACGTGCATTA	0.24
TGTCACACGTGATCGG	0.26
TTGGACACGTGTTTTA	-0.01
ATTGTCACGTGTGACA	0.13

Sequence	relative binding free energy [kcal/mol]
TATGTCACGTGCTTTG	0.01
TTCTTCACGTGTGAGG	0.31
AGTATCACGTGAGTCG	0.15
AGGTGCACGTGAGTAG	0.07
ATGTACACGTGGTGGG	-0.11
AGTTCCACGTGGGTAT	-0.04
TGTCACACGTGGATGT	0.03
TGTGACACGTGTTTGA	0.04
AGCTTCACGTGTGTAG	0.13
GATAGCACGTGACGTT	0.24
ACTTTCACGTGTTTTG	0.19
TTTTCCACGTGAGTAT	0.48
CGGTCCACGTGTGTGT	0.01
GTCGTCACGTGGGAGA	0.02
CGGATCACGTGATTGG	0.27
GCAGGCACGTGTAGGT	0.01
TCTTGCACGTGAGTGG	0.27
ATAATCACGTGTTGAA	0.09
AGTAACACGTGGAGAG	0.03
TGGAGCACGTGTGTGT	-0.06
GGAGCCACGTGTGTGG	0.02
TGGGACACGTGGAATT	0.11
TTTTTCACGTGCGTAT	0.38
TATTCCACGTGTTTAT	-0.01
ATGTACACGTGGGGGT	-0.16

Sequence	relative binding free energy [kcal/mol]
ATGTGCACGTGTCGGT	-0.02
TGGTTCACGTGATTTC	0.53
TAATGCACGTGAGGAC	0.36
TTTATCACGTGGCGCT	0.14
TCTGTCACGTGTGTGG	0.12
GAGAGCACGTGGTTGG	-0.12
AGTGTCACGTGGTCGA	-0.07
TCCGTCACGTGTGAGG	0.24
GTAGGCACGTGAAGCT	0.09
TTAGTCACGTGTTGAA	0.09
GTTGGCACGTGGGGCA	-0.24
TATGTCACGTGCGGTA	-0.04
TGTAGCACGTGTTACG	-0.16
TTGGTCACGTGGTCGT	0.02
TGGGCCACGTGGAGTA	0.03
AGTATCACGTGCGAGT	0.17
AGATGCACGTGTGTTG	-0.09
TGGAGCACGTGTTCAT	-0.15
CTGTGCACGTGTCGTG	0
TAGTTCACGTGGGTGA	0.21
TGATGCACGTGCCGGG	0
TGTGTCACGTGCGTCG	-0.09
ATTTCCACGTGGGTGT	-0.1
AAGTTCACGTGGTGAG	0.17
GGTGTCACGTGCGTAT	0.09

Sequence	relative binding free energy [kcal/mol]
TAGTGCACGTGTACGG	0.01
CGGGGCACGTGTTAAG	-0.14
TTGGTCACGTGAGTCA	0.49
GTTTGCACGTGTATGA	0.05
TAATTCACGTGATTAA	0.22
AGGGTCACGTGGCGAA	-0.06
CATTTCACGTGTGGTG	0.34
AGGAGCACGTGGAAAG	0.02
GAATTCACGTGGTGTC	0.16
AACGTCACGTGGTAGG	0.1
TAGATCACGTGTGAGA	0.25
ATGCACACGTGTTTGG	0.13
TGATACACGTGTTTTG	-0.02
GGAGACACGTGTAGGT	0.07
GGTGACACGTGGCGCG	-0.03
TGGAACACGTGCAGTG	-0.04
CGGCTCACGTGTGTGT	0.19
TAGATCACGTGTGGCG	0.03
GGTTGCACGTGTCAAG	-0.04
TCTAACACGTGGGTGT	-0.26
TTATGCACGTGGTATA	-0.17
